# Source: PubChem BioAssay AID624417 (National Center for Advancing Translational Sciences (NCATS), 2012)
# Hit rate of the full screen: of about 410,000 compounds, about 6,400 (1.6%) were called active. Inconclusive results, whose numbers are uncertain, are shown with a selection of clear calls. The call rests on the fitted dose curve; in most records, active means well fitted inhibition curve with a large enough effect; inconclusive means small, poorly fitted or top-dose-only effect; inactive means no such curve, though single readings can be large or run the other way. No potency is given beside an inconclusive call; the fits are too rough.
# Target: Glucagon-like peptide 1 receptor (Homo sapiens) (UniProt P43220)
# UniProt P43220, sequence (P43220 whole entry, looked up): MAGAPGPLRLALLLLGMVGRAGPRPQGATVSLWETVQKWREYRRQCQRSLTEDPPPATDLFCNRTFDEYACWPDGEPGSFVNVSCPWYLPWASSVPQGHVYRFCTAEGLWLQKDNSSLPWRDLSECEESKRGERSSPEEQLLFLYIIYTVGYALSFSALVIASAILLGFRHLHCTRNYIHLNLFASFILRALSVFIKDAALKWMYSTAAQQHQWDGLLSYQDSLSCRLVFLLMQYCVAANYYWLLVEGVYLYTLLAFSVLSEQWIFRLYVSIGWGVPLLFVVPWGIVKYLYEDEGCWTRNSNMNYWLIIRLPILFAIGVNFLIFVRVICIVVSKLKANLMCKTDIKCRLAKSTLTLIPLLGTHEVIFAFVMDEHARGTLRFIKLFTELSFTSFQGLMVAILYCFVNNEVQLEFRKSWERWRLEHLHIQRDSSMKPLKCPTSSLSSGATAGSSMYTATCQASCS
# Experiment: qHTS of GLP-1 Receptor Inverse Agonists (Inhibition Mode); further: nearly all actives have a fitted effect of over 55% in size
# Details: HEK293 GLP-1R CRE-luciferase, luminescence, 24 h, GLP-1R form is constitutively active; activity change, negative = inhibition: at 38.3 µM (top of the series) unless noted
# Outline: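 Using stably transfected HEK293 (constitutively active GLP-1R, cAMP-luciferase reporter), compounds were incubated 24 hr and luciferase measured by luminescence.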
# On the % scale 0 is the no-effect control and ±100 the full control effect; potency means the concentration at half of the fitted maximal effect; tags describe the fitted curve by direction and shape.
Compound,"activity change, negative = inhibition",Potency
O=C(NCc1ccccc1F)C(=O)NCC(c1ccc2c(c1)OCO2)N1CCOCC1 (stereo unspecified),inactive: 0.707%,–
Nc1ncn([C@@H]2O[C@H](CO)[C@@H](O)[C@H]2O)c(=O)n1,–,"inconclusive [inhibitor, partial curve, poor fit]"
O=C(OCc1ccccc1)N1CCC2CC1c1ccc(N3CCNCC3)cc12 (stereo unspecified),–,"inconclusive [inhibitor, partial curve, poor fit]"
Cc1onc(-c2ccccc2)c1-c1ccnn1S(=O)(=O)c1ccc(Cl)cc1,–,"inconclusive [inhibitor, partial curve, poor fit]"
COc1cc(CNCc2cccs2)ccc1OCc1cccs1,–,"inconclusive [inhibitor, single point]"
N#CC(c1ccccc1)c1ccc(C(=O)c2ccc(F)cc2)cc1 (stereo unspecified),–,"inconclusive [inhibitor, single point]"
O=c1oc2ccccc2cc1-c1nc(-c2ccccc2)no1,inactive: 6.97%,–
CNc1ccccc1C(C)(C)c1cc(C)[nH]n1,–,"inconclusive [inhibitor, single point]"
CC[n+]1c(/C=C2\Sc3ccccc3N2C)ccc2cccc(C)c21,–,active: 12.6 µM
COc1cccc(CCN2CCC(CNS(=O)(=O)c3cc(-c4cc(C)no4)ccc3OC)CC2)c1,–,"inconclusive [inhibitor, partial curve, poor fit]"
CCCCN(CCCC)C1=Nc2ccccc2N/C1=C(/C#N)C(=O)OCC,–,"inconclusive [inhibitor, partial curve, poor fit]"
NC(=O)C1CCN(C(=O)CC(c2ccccc2)c2ccccc2)CC1,inactive: 9.64%,–
CC(=O)c1cccc(NC(=O)CSc2ncc3c(n2)-c2cc(Cl)ccc2N(Cc2ccccc2)S3(=O)=O)c1,inactive: -0.575%,–
CCOC(=O)[C@H]1[C@H]2COc3ccc(Cl)cc3[C@@H]2N2C(=O)CN(Cc3ccc(Cl)cc3)C(=O)[C@@]12C,–,"inconclusive [inhibitor, single point]"
CC(=O)c1ccc(-c2ccc(C(=O)Nc3nc(-c4ccccn4)cs3)o2)cc1,–,"inconclusive [inhibitor, single point]"
CCOc1ccc(C(=O)NC(=S)NC2CCCC2)cc1[N+](=O)[O-],–,"inconclusive [inhibitor, partial curve, poor fit]"
O=C(O)c1ccc(CSCc2ccccc2)o1,–,"inconclusive [inhibitor, single point]"
COCCCn1c(C(=O)NCCN2CCOCC2)cc2c(=O)n3cccc(C)c3nc21,inactive: 103%,–
CCOc1cccc(CN2CCC(n3nccc3NC(=O)c3ccc4c(c3)OCO4)CC2)c1,–,"inconclusive [inhibitor, partial curve, poor fit]"
Cn1cccc1-c1cc(C(=O)N/N=C/c2ccc(F)cc2)[nH]n1,inactive: -12.8%,–
COc1ccc(OC)c(C2C(C(=O)Nc3ccc(C)cc3)=C(C)Nc3nnnn32)c1 (stereo unspecified),–,"inconclusive [inhibitor, single point]"

Compound,"activity change, negative = inhibition",Potency
COc1ccc(CCNC(=O)/C(C#N)=C/c2cccc(OCc3ccccc3)c2)cc1OC,–,"inconclusive [inhibitor, single point]"
CC1c2ccccc2N(S(=O)(=O)c2ccccc2)C1C (stereo unspecified),–,"inconclusive [inhibitor, partial curve, poor fit]"
CCOc1ccccc1N1CCN(C(=O)NC(C)c2ccc(F)c(F)c2)CC1 (stereo unspecified),–,"inconclusive [inhibitor, partial curve, poor fit]"
COc1ccc(S(=O)(=O)N(CC(=O)N/N=C/c2cccs2)c2ccc(C)cc2)cc1OC,–,"inconclusive [inhibitor, single point]"
Cc1ccc(-c2nnc(SCC(=O)NC3CCCc4ccccc43)n2N)cc1 (stereo unspecified),–,"inconclusive [inhibitor, partial curve, poor fit]"
O=C(Nc1ccc2[nH]c3c(c2c1)CCCC3)c1ccco1,–,"inconclusive [inhibitor, partial curve, poor fit]"
Cc1cc(C(=O)COC(=O)CC2Sc3ccccc3NC2=O)c(C)n1-c1ccccc1 (stereo unspecified),–,"inconclusive [inhibitor, partial curve, poor fit]"
CC(C)CCNC(=O)Cn1nc(N2CCN(c3ccccc3)CC2)ccc1=O,inactive: 1.99%,–
COc1ccc(Br)cc1Cn1nnc(C(=O)Nc2cccc(SC)c2)c1N,–,"inconclusive [inhibitor, single point]"
COc1cccc(NC(=S)Nc2ccc(O)cc2)c1,inactive: 10.5%,–
O=C(C/C=N/OCc1c(Cl)cccc1Cl)c1cnc(-c2ccccc2)s1,–,"inconclusive [inhibitor, partial curve]"
O=C1N[C@@H](Cc2cn(S(=O)(=O)c3ccc([N+](=O)[O-])cc3)c3ccccc23)C(=O)N[C@H]1Cc1ccccc1,–,"inconclusive [inhibitor, partial curve, poor fit]"
COCCNC(=S)N(CCc1c(C)[nH]c2ccc(Cl)cc12)Cc1cccnc1,–,"inconclusive [inhibitor, single point]"
Cc1cc(/C=C2\SC(=Nc3ccc(F)cc3)NC2=O)c(C)n1-c1ccc(S(N)(=O)=O)cc1,–,"inconclusive [inhibitor, partial curve, poor fit]"
C=CCNC(=S)NNc1nc2sc3c(c2c(=O)[nH]1)CC(C)(C)OC3,inactive: 29.3%,–
O=C(CSc1nc2ccccc2n1Cc1cccc(F)c1)NCc1ccccc1,–,"inconclusive [inhibitor, single point]"
O=S(=O)(NCCc1csc(-c2ccc(C(F)(F)F)cc2)n1)c1ccc2c(c1)OCCO2,–,"inconclusive [inhibitor, single point]"
Cc1cc(C)c2nc3sc(C(=O)N4CCOCC4)c(N)c3cc2c1,–,"inconclusive [inhibitor, full curve, poor fit]"
CC(=O)Oc1ccc(Cn2c(C)c(C(=O)NCc3ccccc3C(F)(F)F)sc2=O)cc1,–,"inconclusive [inhibitor, single point]"
OC[C@@H]1[C@@H](c2ccc(F)cc2)C(c2cccc(Cl)c2)=NN1c1ccccc1,–,"inconclusive [inhibitor, partial curve, poor fit]"
COc1ccccc1NC(=O)Nc1nnc(CC(=O)Nc2ccccc2C)s1,–,"inconclusive [inhibitor, partial curve, poor fit]"

Compound,"activity change, negative = inhibition",Potency
Cc1cccc(N2CCN(C(=O)Cc3ccccc3[N+](=O)[O-])CC2)c1C,–,"inconclusive [inhibitor, single point]"
Cc1ccc(N=C/C(C(=O)C(F)(F)F)=C(\O)c2cccs2)cc1,–,"inconclusive [inhibitor, single point]"
CCc1ccc(/C=C2/SC(=S)N(CCC(=O)NCCCN3CCOCC3)C2=O)cc1,–,"inconclusive [inhibitor, full curve, poor fit]"
CC(=O)c1ccc2c(c1)CC1(C2)Cc2cc3c(cc2C1)C(=O)CC3 (stereo unspecified),–,"inconclusive [inhibitor, full curve]"
C=CCn1c(SCC(=O)c2cc(C)n(CC3CCCO3)c2C)nnc1-c1ccccc1 (stereo unspecified),–,"inconclusive [inhibitor, partial curve]"
O=C(Cc1ccc(Br)cc1)N1CCCCCC1,–,"inconclusive [inhibitor, single point]"
COc1cccc(N2CCN(C(=O)c3ccc(CS(=O)Cc4ccc(C)cc4)o3)CC2)c1 (stereo unspecified),–,"inconclusive [inhibitor, single point]"
C=CCn1c(SCc2cccc(C#N)c2)nnc1-c1ccccc1O,–,"inconclusive [inhibitor, partial curve]"
O=C(/C=C/c1cn(-c2ccccc2)nc1-c1cccnc1)N1CCCCC1,inactive: 14%,–
CCCCNC(=O)Nc1ccccc1C(=O)NCCC,inactive: 0%,–
COc1ccc(C(CNc2ccc(S(=O)(=O)N3CCCC3)cc2[N+](=O)[O-])N2CCCC2)cc1 (stereo unspecified),–,"inconclusive [inhibitor, partial curve, poor fit]"
Cc1cccc(N=N/C(=C\O)C(=O)c2ccc(Br)cc2)c1,–,"inconclusive [inhibitor, partial curve, poor fit]"
O=C(NCCN1CCC(n2c(=O)[nH]c3ccccc32)CC1)c1ccc(Cl)c(Cl)c1,–,"inconclusive [inhibitor, single point]"
O=[N+]([O-])c1cccc2nc(-c3ccccc3)c(-c3ccccc3)nc12,inconclusive: -76.9% [inhibitor],–
CC(C)CNS(=O)(=O)c1ccc(CCC(=O)NCc2ccc(Cl)cc2)cc1,–,"inconclusive [inhibitor, single point]"
CCOc1ccc(NS(=O)(=O)c2ccc(C(=O)N3CCCCC3)cc2)cc1,–,"inconclusive [inhibitor, single point]"
CCN(CC)CCCNC(=O)c1cc2c(=O)n(CC)c3ccccc3c2s1,–,"inconclusive [inhibitor, single point]"
O=C(CCN1C(=O)/C(=C/c2ccccc2F)SC1=S)N[C@@H](CO)Cc1ccccc1,–,"inconclusive [inhibitor, partial curve, poor fit]"
CC1=C(C(=O)c2ccccc2)C(c2cn(-c3ccccc3)nc2-c2ccc(Cl)cc2)NC(=S)N1 (stereo unspecified),–,"inconclusive [inhibitor, single point]"
